Measured values reported in the supplement of paper PMC11417369.
± gives the standard deviation of the averaged measurements. This is one part of the list.

Each sequence was assayed on PfAP2-EXP AP2 domain (GST-tagged) (assay: gcPBM binding intensity (ln(normalized median fluorescence intensity)); higher = stronger DNA binding).
How it was run: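 Using an Agilent 4 × 180k array, primer-extended double-stranded 36-bp intergenic genomic probes and negative controls were exposed for 1 h to GST-fused P. falciparum DNA-binding domains expressed in E. coli. Binding was carried out in 1× PBS with 1% milk, 0.2 mg/ml BSA, 0.5% salmon testes DNA and 0.03% Triton X-100, and protein was detected with Alexa488 anti-GST antibody and a 488 nm scan. Binding intensity is the highest Masliner-normalised natural-log median intensity across replicate spots of either probe orientation.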

In order of falling “gcPBM binding intensity (ln)” value:
1. AAGTACCATATAGGCACACATATATATATATATATA [CACACA_site3282]  10.2 ± 0.34
2. GGAATAACCAGACACACACACACATATATATATATA [CACACA_site3541]  10.1 ± 0.5
3. AAAAAAAAAAAACATACACACACATATATATATATA [CACACA_site8452]  10 ± 0.54
4. ATATTAAAAAGGAAATGTACGTAATGAAGATCAAGT [XGTACX_site3138]  9.26 ± 0.35
5. TAAAAATAAATAAATACATGCACCAAAAATAAATTT [TGCATGCA_site801]  9.15 ± 0.16
6. AATATATTAAAAAAGCGTACAAGAATTGGAAAATGG [XGTACX_site6576]  9.12 ± 0.36
7. TATTTATTAAGACACACACACACACGCACAAAATAA [CACACA_site6254]  9.11 ± 0.25
8. ATGAAATATTTATTTGTGCACTTAATTTGTTGGAAA  9.05 ± 0.16
9. TGTCATTCCTCTTATTGTACAAAAATATTATAATAT [XGTACX_site1134]  8.99 ± 0.61
10. AAGAAATAAAAAAAACGTACATATATACATACATAC [XGTACX_site3980]  8.98 ± 0.23
11. GTTGTTATATAAAGGAGTACATAATAACACAAATAT [XGTACX_site615]  8.96 ± 0.3
12. TCCAATTCTTTATTTTGTACACATTATGTGCATATG [XGTACX_site6290]  8.94 ± 0.36
13. ATAATATGAAACTCGTACGAGGTTGTCCCAAATATA [CACACA_negctrl_site1350]  8.88 ± 0.46
14. ATTTATATTCCAATATGTACATATTTTCGTATAACC [XGTACX_site8507]  8.88 ± 0.35
15. ATTGCCATTGTTAATGCATGTAACAATTCAGCTCAT [TGCATGCA_site56]  8.88 ± 0.3
16. ATTTTAATAAAATATGTACACACATACACCCATATA [CACACA_site8326]  8.84 ± 0.39
17. AAAAAAAAAAAAATACGTACACAAAAAATTGCAAAG [XGTACX_site5663]  8.83 ± 0.49
18. TATACTCATGGACACACACACATACACAGACATACA [CACACA_site5024]  8.82 ± 0.53
19. TTAAAAAACATTTGAACATGCAATTGTATATGTAGA [TGCATGCA_site334]  8.82 ± 0.41
20. TAAATATGAGGGAACACACACATGATATATAAATTC [CACACA_site2400]  8.81 ± 0.43
21. TTTTTTTTTTTAGACACATGCATTTTTATAATTTTC [TGCATGCA_site843]  8.8 ± 0.39
22. AATATTTTGATGTGTACACATTAATACAGTTTTACA [CACACA_site5711]  8.79 ± 0.31
23. GATTTATTTCATATCACACATTTTGGCTATTTTGTG [CACACA_site5793]  8.77 ± 0.43
24. TTCATATATAATTGTACACACAAAAACGACATTGTG [CACACA_site2074]  8.76 ± 0.37
25. TGCAACAAAATAAACACACACACACTAGCACAAAAA [CACACA_site5805]  8.75 ± 0.49
26. TATATATATTAACTTGTGCGCAAAAAGATATAATTT [GTGCAC_site9672]  8.75 ± 0.3
27. ATATATGATGTATTTGTGCACATATATATATTATTA [GTGCAC_site9471]  8.75 ± 0.028
28. TAAAAATTTGATCAAACACACGTTGCATAAATTATA [CACACA_site6040]  8.74 ± 0.57
29. AAAAAAAAAACACACACATGCACATCATATTATATA [TGCATGCA_site133]  8.72 ± 0.54
30. TACATATAAACAATAACACACACCTAGGTACATGGA [CACACA_site8178]  8.72 ± 0.48
31. AGGGTTCATATATTAACACACACATACATATTATAT [CACACA_site8959]  8.71 ± 0.49
32. AATTAACAAAAACACACACACACACCCACAAAAAAA [CACACA_site517]  8.71 ± 0.61
33. AATCCTTCATATGTAGTGCATATTAACAAAATAAAA [GTGCAC_site9500]  8.7 ± 0.33
34. AAAGGAAAAAAAGTAGCACACAAATATTTATAATAT [CACACA_site8772]  8.7 ± 0.56
35. AAAAACCATTCGCACACACACATAATCTATAATATA [CACACA_site6782]  8.69 ± 0.43
36. GCTATAAATACAGACGCACACATATACATACAGATA [CACACA_site5778]  8.68 ± 0.4
37. GATATTTTTATTTGTTGTACTTAAGATAATAAATGA [XGTACX_site2891]  8.68 ± 0.28
38. AAACGGGAGAAATAAAAATAAAAATAATAAAACAAA [XGTACX_negctrl_site586]  8.67 ± 0.51
39. TAAATTGGTGCAAAGTGTACATATATATCTTTCCTA [XGTACX_site5458]  8.67 ± 0.17
40. AAACAAAAGGAAAACATATATATATTAAATGTATAT [CACACA_negctrl_site1663]  8.65 ± 0.45
41. ACATATTTATATTCTACACACTTATACTATAATACA [CACACA_site7204]  8.64 ± 0.37
42. CCATTTGGTATTATATGTACATATAATTTTTTTTTT [XGTACX_site157]  8.63 ± 0.35
43. TTTTTGTAAACCTACTTCATAATTATTTATATCTAT [XGTACX_negctrl_site599]  8.63 ± 0.52
44. GAGAAAAATATATACACACACATAAATATATACATA [CACACA_site1895]  8.62 ± 0.39
45. TATATATAATATTATACACACATATCTGCATAATAT [CACACA_site4202]  8.61 ± 0.33
46. AGATCATAATATTATACACACATTATATATATGTAA [CACACA_site8419]  8.6 ± 0.5
47. TTTAAAGGTGATAAAACACACGATTTAGAAATGTAT [CACACA_site3161]  8.59 ± 0.41
48. ATAAATGTGTTTATTTAACACACAAAAGAAAAAATA [CACACA_site8589]  8.59 ± 0.73
49. TTATTTTTTCTTCAAATGTGAATTATTCATTTATTT [TGCATGCA_negctrl_site545]  8.58 ± 0.47
50. TAAATGAAAATATGTACACACTTGAAAACTTTTATG [CACACA_site7388]  8.57 ± 0.49
51. TAAATAAAAAGACACACACACATATTTATATTTATA [CACACA_site7135]  8.57 ± 0.4
52. ATATATTATCAACTTACACACAGAAAAATATAATAA [CACACA_site293]  8.56 ± 0.45
53. TGATATCTTAAGAAATGTACAAAGATATAACCATTT [XGTACX_site1913]  8.56 ± 0.49
54. AATTTGATTATAAATTGTACATATATATATTAAAAG [XGTACX_site5461]  8.56 ± 0.4
55. AATATATATATTAAATGTACATTACATAATTATATA [XGTACX_site3450]  8.54 ± 0.43
56. TGGAAAGTTATTAACACACACATATAAATATTTATA [CACACA_site6173]  8.54 ± 0.35
57. TTTTTAGTAACATATAGTACATATATATATATATGT [XGTACX_site4780]  8.54 ± 0.16
58. GTATCAAAAGAATACACACACACATACCTATAAATA [CACACA_site7737]  8.53 ± 0.55
59. AAAAAAAAAAAAAAAACACACATTTATAGTATATAT [CACACA_site1194]  8.5 ± 0.11
60. ATTGTTACATAAAATGCACACTTTCAAATATGCTAA [CACACA_site5600]  8.5 ± 0.24
61. AGGCTATAATACCATACACACATTTATAAAATAACA [CACACA_site6990]  8.5 ± 0.49
62. ATTTAGAATGTTCCTACACACCAAATTTAAGGGTGC [CACACA_site5320]  8.48 ± 0.46
63. ATTGTTAAATATAATACACACGTTTTTAAAAATATA [CACACA_site5239]  8.48 ± 0.47
64. CATACATAAATATAAACATGCATATATTTTTTTTAT [TGCATGCA_site616]  8.46 ± 0.41
65. GTATATATGTATATGTGTACATATATTTTATAATAT [XGTACX_site5703]  8.45 ± 0.12
66. AAATATCAACTCAAATGTACAAATCACAAAAATGTA [XGTACX_site5344]  8.45 ± 0.51
67. CTTTTGTATATTATATGTACACACAATAAGTTAATA [XGTACX_site1684]  8.45 ± 0.34
68. TTTTCTTGTAGTATAACAAAATATAGTAATATATAT [GTGCAC_negctrl_site609]  8.44 ± 0.46
69. GATATGTAAATAATATGTACATATTTATATTGTATT [XGTACX_site4052]  8.44 ± 0.29
70. TATACACATATATATAGTACATATATAATTTACTAT [XGTACX_site1849]  8.44 ± 0.22
71. AGTATTCTAATTTTTAAACACACAAATATAAATAAG [CACACA_site9029]  8.44 ± 0.38
72. TTTTTTTTTCTCCATACACACTTGATAAAACTTTTT [CACACA_site4512]  8.41 ± 0.3
73. ATATATACCTATATTACACACTTCTTATTCTAAGAA [CACACA_site7421]  8.38 ± 0.35
74. TGTTATTAGAAAAATGCACACCAAAAAAAAAAAAAA [CACACA_site8802]  8.37 ± 0.54
75. TTAATACAAATAAAAAGTACAAGTATCGAACTACTA [XGTACX_site6308]  8.37 ± 0.37
76. GCAAAATAACAATGTTACACTTATAAAATTGAGGCA [GTGCAC_negctrl_site68]  8.36 ± 0.53
77. ATTACAAATTCTTTCAGTACATATAAAGAAAAAAAT [XGTACX_site7786]  8.335 ± 0.021
78. AAAAACGAAAAAAATACACACCTGAAAAGATATGTA [CACACA_site4644]  8.33 ± 0.51
79. TGTATAACCTGTGTTACACACATTAAAATTTATATA [CACACA_site4449]  8.3 ± 0.4
80. GGAAATAAAATTAAATGTACGAAAACTCATTAAATT [XGTACX_site4274]  8.29 ± 0.24
81. AAAAAGAATGTGAACACACACATTGAATATAATTTA [CACACA_site1262]  8.28 ± 0.2
82. AAAATTATTTAGTAAGTGCAAAAAAAAAAAAAAAAA  8.24 ± 0.45
83. ATATGTATGTATGTCTCAAAATTTCATATTATATTA [CACACA_negctrl_site784]  8.22 ± 0.43
84. ACATATATTTATATATGTACATATGATATATACATA [XGTACX_site6122]  8.2 ± 0.23
85. TATTAAAATATTTATACACACATAATTTTGATAAAT [CACACA_site4486]  8.19 ± 0.43
86. TGAAATTAAATATATACACACATATATATTTATATG [CACACA_site3516]  8.13 ± 0.33
87. ATATACATAATATATAATATAAATATATATATGGAA [CACACA_negctrl_site906]  8.12 ± 0.24
88. TAGGATATTGAATAATGTACTTTATATATAATATAA [XGTACX_site7828]  8.12 ± 0.28
89. TAAATAAAAAAAAATACACACATCTATATAAAATAT [CACACA_site3774]  8 ± 0.042
